The record followed here is the RNAGym collection of RNA variant scans (doi:10.1093/nar/gkz1192).

Read counts are not given, so values of variants with three or more changes are uncertain.

First the molecules themselves.
B1: CPEB3 Ribozyme (parent)
chain: UAACAGGGGGCCACAGCAGAAGCGUUCACGUCGCAGCCCCUGUCAGAUUCUGGUGAAUCUGCGAAUUCUGCUGUAUAUCUC

Variants of B1 are the subject of the data set. Nature of the data set: self-cleavage, relative activity (ratio to wild type); higher = more cleavage; in vitro, sequencing. The procedure, abridged: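 Barcoded CPEB3 ribozyme mutants, produced by rounds of error-prone PCR, self-cleaved while being transcribed with T7 RNA polymerase for 5 hours at 37°C and during a subsequent 15 min DNase I step before EDTA was added. Sequencing of template-switched cDNA on Illumina gave cleaved and total reads, and DNA sequencing assigned barcodes to variants. Each variant's relative activity is its cleaved/total read fraction divided by the unmutated ribozyme's fraction, averaged across three batches. A variant needed a minimum of 5 reads.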
As for A15G A21G C62U, the self-cleavage stood at 0.17.

Regarding A15U A18G U60C, the self-cleavage was 0.17.

Take A15G U26A C37U A47G A64G U78C: the self-cleavage came out at 0.39.

In the case of A15G C17G U26C C29A C32U U69A, the self-cleavage amounted to 0.22.

Take A15G A35U A64U: the self-cleavage was 0.17.

In the case of A15G A20G A21G A57G U60A U72C, the self-cleavage stood at 0.19.

For A15G G33U A35G A45G A56C U69A, the self-cleavage was 0.2.

In the case of A15G U41A U43A U69C, the self-cleavage turned out to be 0.42.

For A15G U67C U69A, the self-cleavage came to 0.17.

As for A15G U49C U74C, the self-cleavage is 0.31.

In the case of A15C U48C G61A, the self-cleavage stood at 0.14.

On to A15G U41C U48A, for which the self-cleavage was determined as 0.18.

For the variant A15G C34U U41A U69C, the self-cleavage amounted to 0.15.

A15C U49C A75U: the self-cleavage worked out at 0.13.

A15G A18U U74A C81U: the self-cleavage is 0.29.

On to A15G U49C U72C C79U, for which the self-cleavage came out at 0.69.

Turning to A15G C17A U51C, the self-cleavage came to 0.2.

For the variant A15G A20U U67C, the self-cleavage was 0.1.

As for A15G U41A U58C A75U, the self-cleavage turned out to be 0.19.

With A15U A21G U43A U48A, the self-cleavage came out at 0.09.

Take A15G A47G U72C U74C: the self-cleavage amounted to 0.95.

As to A15G U41C U49C U67C, the self-cleavage amounted to 0.05.

As for A15U A18G U67A A75U, the self-cleavage is 0.19.

Regarding A15G G24A G70U, the self-cleavage amounted to 0.25.

As to A15G C37U C39A A47C U49C U74C U80A, the self-cleavage was found to be 0.03.

Consider A15U A18G U26A A45G, for which the self-cleavage worked out at 0.09.

As for A15G U31C U41C A47G U67A, the self-cleavage came to 0.17.

For the variant A15G U26C A75G, the self-cleavage was 0.29.

For the variant A15G A18G A57G, the self-cleavage amounted to 0.35.

A15U A18C U43C U74A: the self-cleavage is 0.1.

Take A15G A35U A77C: the self-cleavage was found to be 0.44.

A15G A18U A20U: the self-cleavage was 0.17.

Turning to A15U A21G A47U, the self-cleavage was determined as 0.42.

As to A15G U26C U43C U49G, the self-cleavage was 0.21.

Turning to A15G C40A A77G, the self-cleavage stood at 0.26.

Consider A15G C29G A35U C39A A45G A77U, for which the self-cleavage is 0.04.

A15G A21G G53A U54A U80A: the self-cleavage was determined as 0.75.

On to A15G U48C U51C C59A, for which the self-cleavage is 0.13.

As to A15G A18U A45G, the self-cleavage is 0.15.

Regarding A15G U25C U48C A57G C59U U72C, the self-cleavage came to 0.47.

Regarding A15G U69C U74C U80C, the self-cleavage was 0.19.

As for A15G U31C A57G U58C U69G, the self-cleavage turned out to be 0.04.

Regarding A15C U49A A65G, the self-cleavage was 0.17.

For A15G C29A U72C, the self-cleavage was 0.46.

Consider A15G U41C U51A, for which the self-cleavage was determined as 0.93.

A15G C29G U31C C32G C34A: the self-cleavage came to 0.29.

Take A15G U41A U60C: the self-cleavage stood at 0.25.

For the variant A15G A45G U48A U58A A64U U80A, the self-cleavage was found to be 0.09.

As for A15G C27U A35G U54C U67A G73A, the self-cleavage is 0.09.

As to A15G A56G U80C, the self-cleavage amounted to 0.88.

As to A15G U25C U69C C81A, the self-cleavage is 0.23.

As to A15G U31A C40U, the self-cleavage was 0.58.

Regarding A15G U26A G33A U48C A57G, the self-cleavage was 0.07.

Regarding A15U A18G C59U A64G U66C, the self-cleavage came out at 0.13.

Regarding A15U A18U C38G U49C C62A U78A, the self-cleavage is 0.04.

Regarding A15U A18G U49C U60C U67C, the self-cleavage stood at 0.07.

In the case of A15G A45G U72C, the self-cleavage was determined as 0.99.

A15G U25C A45G A57G U69C U74A: the self-cleavage was 0.03.

For A15G U25C U54C U69C, the self-cleavage was 0.38.

In the case of A15G G16C A77G, the self-cleavage was 0.14.

For the variant A15G A18U A21G U72G, the self-cleavage is 0.34.

In the case of A15U A21G A56G U69C, the self-cleavage was 0.24.

As for A15G C38U U43C U67A, the self-cleavage is 0.12.

For the variant A15G C23A A64G, the self-cleavage came to 0.11.

A15G U41C A45G U60A U72C A75G: the self-cleavage turned out to be 0.97.

A15G U31A C34U U48C A64U U67A U80C: the self-cleavage turned out to be 0.08.

With A15G G19U A20G U41A, the self-cleavage came out at 0.08.

Take A15G A21U C29U U31C A57G: the self-cleavage was 0.05.

In the case of A15G U43A U49G, the self-cleavage is 0.39.

As to A15G C23U G33A U49C C50G G63A A64C, the self-cleavage is 0.08.

With A15G A18G A35U U41C G55A U66C U80C, the self-cleavage was determined as 0.05.

On to A15G A18G U66C U78C, for which the self-cleavage was 0.03.

Regarding A15U A21G U26C U48C A64U A77G, the self-cleavage was 0.17.

Consider A15G A35U G55A A57G A64G, for which the self-cleavage came to 0.1.

With A15G U41A U43C U51A U60A G70U, the self-cleavage is 0.08.

For A15G U74A U78A U80C, the self-cleavage came out at 1.18.

Consider A15G A28G U31A A45U A56U U66C U78C, for which the self-cleavage was found to be 0.01.

As to A15G C32G A47G, the self-cleavage was 0.15.

For the variant A15G G19U C37A U41C G63A, the self-cleavage is 0.17.

A15G U25C A35G U67A U80A: the self-cleavage is 0.04.

Regarding A15G U31A U41A U60C G63A U72C, the self-cleavage turned out to be 0.12.

As for A15G U49C U54A U74A, the self-cleavage stood at 0.27.

As for A15G A20U A47U U58A, the self-cleavage was 0.06.

In the case of A15U A18G U51C A64G, the self-cleavage worked out at 0.12.
